This note sets out measurements from the supplement of paper PMC11417369.

± gives the standard deviation of the averaged measurements. This is one part of the list.

The assay deals with PfAP2-EXP AP2 domain (GST-tagged). As to the kind of experiment: gcPBM binding intensity (ln(normalized median fluorescence intensity)); higher = stronger DNA binding. The gist of the method:
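Binding intensity is the highest Masliner-normalised natural-log median intensity over replicate spots in either probe orientation. To obtain it, GST-tagged P. falciparum DNA-binding domains made in E. coli were incubated for 1 h on an Agilent 4 × 180k array of primer-extended double-stranded 36-bp intergenic genomic probes plus negative controls. Detection used Alexa488 anti-GST antibody with scanning at 488 nm.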
Consider “TATAAAAAGCAAAACAAAAAAACAAATTGAAAAATT [TGCATGCA_negctrl_site158]”, for which the “gcPBM binding intensity (ln)” value came to 8.71 ± 0.73.

For the sequence “TTACTACTATATTATACACACATATATTTATTTATA [CACACA_site7274]”, the “gcPBM binding intensity (ln)” value worked out at 8.7 ± 0.4.

As to “TTTTTTATTTTTTTATTGTTTTATTGTTTCATTGTT [XGTACX_negctrl_site128]”, the “gcPBM binding intensity (ln)” value was found to be 8.59 ± 0.51.

As to “CCGTAGTTTTAAAATAGTACTTTTATGGTTAATAAA [XGTACX_site3162]”, the “gcPBM binding intensity (ln)” value amounted to 8.3 ± 0.42.

Regarding “GTTATAACTCAAATATGTACATATTATAAAACATAT [XGTACX_site6693]”, the “gcPBM binding intensity (ln)” value came to 8.77 ± 0.42.

Consider “AAAAAAAAAAAAAAAGGTACACAAATACGTCCTGCA [XGTACX_site3354]”, for which the “gcPBM binding intensity (ln)” value is 8.78 ± 0.13.

Regarding “TATAAAAATAAGCACACACACAAATATATATTTATT [CACACA_site922]”, the “gcPBM binding intensity (ln)” value worked out at 8.46 ± 0.45.

Consider “TTATAGAACTATATTGCACACATAATATATATATAT [CACACA_site9042]”, for which the “gcPBM binding intensity (ln)” value stood at 9.81 ± 0.18.

Consider “TAATTATAATAAAAAGGTACAGAAAAGTTATACTCA [XGTACX_site6111]”, for which the “gcPBM binding intensity (ln)” value was 8.51 ± 0.46.

Turning to “AATTATCAAAGTCTATACATACATACATACATACAT [GTGCAC_negctrl_site243]”, the “gcPBM binding intensity (ln)” value turned out to be 8.95 ± 0.23.

As to “CACTCTTAAAATAAGGTGCACTATATAACGTGATTA [GTGCAC_site9422]”, the “gcPBM binding intensity (ln)” value is 9.42 ± 0.68.

With “ATAAAATAAATAAATATAAATATATATATATATATA [TGCATGCA_negctrl_site358]”, the “gcPBM binding intensity (ln)” value turned out to be 10.2 ± 0.45.

As for TATACATATTTACAAGTGCATAATATTTTACAAAAA, the “gcPBM binding intensity (ln)” value was found to be 8.46 ± 0.092.

For the sequence “ATATATATGTATGTATGTACTTATTTATTTATTTAT [XGTACX_site7740]”, the “gcPBM binding intensity (ln)” value turned out to be 8.32 ± 0.16.

On to “CCAATGAGGATATATACACACATACATTAAAAAAAT [CACACA_site5090]”, for which the “gcPBM binding intensity (ln)” value stood at 8.65 ± 0.69.

As to “TAAGAAAAAGGCACACGTACATAATTCAAAATAAAT [XGTACX_site982]”, the “gcPBM binding intensity (ln)” value worked out at 8.82 ± 0.52.

With “TTTTTTTTCACACATTGTACTTTTTTATAAAATATA [XGTACX_site4351]”, the “gcPBM binding intensity (ln)” value came out at 8.85 ± 0.23.

With “ATTTAAATAATATGTACACACATTTAAAAAATTATA [CACACA_site2816]”, the “gcPBM binding intensity (ln)” value came out at 8.34 ± 0.33.

Consider GTCAACTTGTGATAAGTGCATATATATAATAAAATG, for which the “gcPBM binding intensity (ln)” value stood at 8.74 ± 0.26.

For “AAAAAAATATAATATTTGAATAAATATAATAATATG [XGTACX_negctrl_site477]”, the “gcPBM binding intensity (ln)” value was found to be 8.21 ± 0.28.

On to “CGAAATAAATCTTATGCACACAAATAATTAATTAAA [CACACA_site8491]”, for which the “gcPBM binding intensity (ln)” value is 8.54 ± 0.22.

For “AATATATAGGTATTTACACACAATGTGAGATCTATA [CACACA_site3407]”, the “gcPBM binding intensity (ln)” value came out at 8.4 ± 0.48.

Consider “ATTTATGAAAAGTAAAGTACACACAGGAAAAAAAAA [XGTACX_site3564]”, for which the “gcPBM binding intensity (ln)” value amounted to 9.04 ± 0.49.

For ATATATGTACAAATTGTGCGCAATAATTTTGTCTTT, the “gcPBM binding intensity (ln)” value amounted to 8.93 ± 0.28.

As for ATTTTCACCTGAACGGTGCATATTTAATTTTAGGTT, the “gcPBM binding intensity (ln)” value was found to be 8.9 ± 0.085.

Consider “ATATATTATAGAGGTGTGCACTACATACATTATAAT [GTGCAC_site9991]”, for which the “gcPBM binding intensity (ln)” value came out at 9.02 ± 0.23.

In the case of “TCTTTATGTAAGGTCTTCCACAAAAAAATTAAAAAA [TGCATGCA_negctrl_site229]”, the “gcPBM binding intensity (ln)” value amounted to 8.26 ± 0.47.

For the sequence “GAAAAATTAATAAATAAACACACATATATATATATA [CACACA_site8835]”, the “gcPBM binding intensity (ln)” value came out at 10.2 ± 0.24.

Take “ATAGAAACATATTGACGTACAGTATAATAATACAGT [XGTACX_site197]”: the “gcPBM binding intensity (ln)” value was found to be 8.72 ± 0.31.

Regarding “AAATCAACTTATTTTTGTACATATATTTATTATATA [XGTACX_site2925]”, the “gcPBM binding intensity (ln)” value worked out at 8.81 ± 0.51.

For “GAATGAAAATAAAATTGTACACATATCTATATCTAT [XGTACX_site2642]”, the “gcPBM binding intensity (ln)” value was determined as 8.43 ± 0.3.

For the sequence “TTTAATTAGGATAATTGTACTGAACTAAGTATATTT [XGTACX_site1871]”, the “gcPBM binding intensity (ln)” value came out at 8.24 ± 0.45.

With “TATATTATATGTATTGCACACCTTCAACAACTACTT [CACACA_site8121]”, the “gcPBM binding intensity (ln)” value amounted to 8.93 ± 0.28.

In the case of “AAAAAAAAAAAAAGTTGTACATTATTTTCCTAATTC [XGTACX_site7998]”, the “gcPBM binding intensity (ln)” value is 8.21 ± 0.32.

On to “ATACATATATATGTGTGTACATATGTGTATACATTT [XGTACX_site6544]”, for which the “gcPBM binding intensity (ln)” value came to 8.58 ± 0.26.

Regarding “ATATGTATTAAGTGTACACATATAATGGGTTTGTTA [CACACA_site5682]”, the “gcPBM binding intensity (ln)” value came out at 8.91 ± 0.36.

As to “TTTTATAAATCTAAACGTATCTAAATGAATAATTAA [GTGCAC_negctrl_site44]”, the “gcPBM binding intensity (ln)” value worked out at 8.11 ± 0.41.

“GAAATAATTGTTAAAGGTACACAATGCATATACAAT [XGTACX_site238]”: the “gcPBM binding intensity (ln)” value worked out at 8.93 ± 0.36.

In the case of “ATAATATATACTAAAAGTACATATTATAATAAATTA [XGTACX_site6749]”, the “gcPBM binding intensity (ln)” value worked out at 8.09 ± 0.31.

With “AAAATAATAATTAATACATGCATTAATTCTTTTTTT [TGCATGCA_site741]”, the “gcPBM binding intensity (ln)” value came to 8.31 ± 0.38.

Consider “ACATATGTATGAATATCAAAAAATCCCTATTTAATG [GTGCAC_negctrl_site27]”, for which the “gcPBM binding intensity (ln)” value is 8.36 ± 0.37.

On to “AGGAAAATAGAAAAAGCACACATATATTTTGGAATG [CACACA_site8080]”, for which the “gcPBM binding intensity (ln)” value was found to be 8.72 ± 0.51.

For “ACTTCATTTTTTTTATGTACACAGAAGATTTACAAA [XGTACX_site4021]”, the “gcPBM binding intensity (ln)” value was 8.96 ± 0.29.

“ATTTATTTATTTTTTTGTACGAATGTTGCACATATA [XGTACX_site4101]”: the “gcPBM binding intensity (ln)” value was 8.59 ± 0.49.
